# In the supplement of paper PMC8728848:
# The list shows a part of the results.
# Experiments:
# Assay in all cases: glycan array binding signal (z-score within array); higher = stronger binding
# Settings in all cases: glycan notation: IUPAC condensed, linker removed
# [1] = target: Gal6S(b1-4)Glc
# Procedure, shortened: (§1)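 Columns mapping to the same glycan were averaged after glycan names were converted to IUPAC-condensed notation. The data come from 3228 arrays in the Consortium for Functional Glycomics database, limited to those with an available protein sequence. Binding is reported as a within-array Z-score averaged across arrays of one protein sequence and across linkers.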
# [2] = target: Gal6S(b1-4)Glc6S
# Procedure, shortened: as §1
# [3] = target: Gal6S(b1-4)GlcNAc
# Procedure, shortened: as §1
# [4] = target: Gal6S(b1-4)GlcNAc6S
# Procedure, shortened: as §1
# [5] = target: GalNAc(a1-3)Gal
# Procedure, shortened: as §1
# [6] = target: GalNAc(a1-3)GalNAc
# Procedure, shortened: as §1
# [7] = target: GalNAc(a1-3)GalNAc(a1-3)Gal(a1-4)Gal(b1-4)GlcNAc
# Procedure, shortened: as §1
# [8] = target: GalNAc(b1-3)Gal
# Procedure, shortened: as §1
# [9] = target: GalNAc(b1-3)Gal(a1-4)Gal(b1-4)GlcNAc
# Procedure, shortened: as §1
# [10] = target: GalNAc(b1-3)Gal(a1-4)Gal(b1-4)GlcNAc(b1-3)Gal(b1-4)Glc
# Procedure, shortened: as §1
# [11] = target: GalNAc(b1-3)Gal(a1-6)Gal(b1-4)Glc
# Procedure, shortened: as §1
# [12] = target: GalNAc(b1-3)GalNAc
# Procedure, shortened: as §1
# [13] = target: GalNAc(b1-4)GlcNAc
# Procedure, shortened: as §1
# [14] = target: GalNAc(b1-4)GlcNAc(b1-2)Man(a1-3)[GalNAc(b1-4)GlcNAc(b1-2)Man(a1-6)]Man(b1-4)GlcNAc(b1-4)GlcNAc
# Procedure, shortened: as §1
# [15] = target: Glc(a1-4)Glc
# Procedure, shortened: as §1
# [16] = target: Glc(a1-6)Glc(a1-6)Glc
# Procedure, shortened: as §1
# [17] = target: Glc(b1-4)Glc
# Procedure, shortened: as §1
# [18] = target: Glc(b1-6)Glc
# Procedure, shortened: as §1
# [19] = target: GlcA(b1-3)Gal
# Procedure, shortened: as §1
# [20] = target: GlcA(b1-3)GlcNAc
# Procedure, shortened: as §1
# [21] = target: GlcA(b1-6)Gal
# Procedure, shortened: as §1
# [22] = target: GlcNAc(a1-3)Gal(b1-4)GlcNAc
# Procedure, shortened: as §1
# [23] = target: GlcNAc(a1-4)Gal(b1-3)GlcNAc
# Procedure, shortened: as §1
# [24] = target: GlcNAc(a1-4)Gal(b1-4)GalNAc
# Procedure, shortened: as §1
# [25] = target: GlcNAc(a1-4)Gal(b1-4)GlcNAc
# Procedure, shortened: as §1
# [26] = target: GlcNAc(a1-4)Gal(b1-4)GlcNAc(b1-3)Gal(b1-4)Glc
# Procedure, shortened: as §1
# [27] = target: GlcNAc(a1-4)Gal(b1-4)GlcNAc(b1-3)Gal(b1-4)GlcNAc
# Procedure, shortened: as §1
# [28] = target: GlcNAc(a1-4)Gal(b1-4)GlcNAc(b1-3)Gal(b1-4)GlcNAc(b1-3)Gal(b1-4)GlcNAc
# Procedure, shortened: as §1
# [29] = target: GlcNAc(a1-4)Gal(b1-4)GlcNAc(b1-3)Gal(b1-4)[Fuc(a1-3)]GlcNAc(b1-3)Gal(b1-4)[Fuc(a1-3)]GlcNAc
# Procedure, shortened: as §1
# [30] = target: GlcNAc(a1-6)Gal(b1-4)GlcNAc
# Procedure, shortened: as §1
# [31] = target: GlcNAc(b1-2)Gal(b1-3)GalNAc
# Procedure, shortened: as §1
# [32] = target: GlcNAc(b1-2)Man(a1-3)[GlcNAc(b1-2)Man(a1-6)]Man(b1-4)GlcNAc(b1-4)GlcNAc
# Procedure, shortened: as §1
# [33] = target: GlcNAc(b1-2)Man(a1-3)[GlcNAc(b1-2)Man(a1-6)]Man(b1-4)GlcNAc(b1-4)[Fuc(a1-6)]GlcNAc
# Procedure, shortened: as §1
# [34] = target: GlcNAc(b1-2)[GlcNAc(b1-4)]Man(a1-3)[GlcNAc(b1-2)Man(a1-6)]Man(b1-4)GlcNAc(b1-4)GlcNAc
# Procedure, shortened: as §1
# [35] = target: GlcNAc(b1-3)Gal
# Procedure, shortened: as §1
# [36] = target: GlcNAc(b1-3)Gal(b1-3)GalNAc
# Procedure, shortened: as §1
# [37] = target: GlcNAc(b1-3)Gal(b1-4)Glc
# Procedure, shortened: as §1
# [38] = target: GlcNAc(b1-3)Gal(b1-4)GlcNAc
# Procedure, shortened: as §1
binder,measurement,setting,value
"Gal 3 (Homo sapiens), P17931 (protein) MADNFSLHDALSGSGNPNPQGWPGAWGNQPAGAGGYPGASYPGAYPGQAPPGAYPGQAPPGAYHGAPGAYPGAPAPGVYPGPPSGPGAYPSSGQPSAPGAYPATGPYGAPAGPLIVPYNLPLPGGVVPRMLITILGTVKPNANILDFQRGNDVAFHFNPRFNENNRRVIVCNTKLDNNWGREERQSVFPFESGKPFKIQVLVEPDHFKVAVNDAHLLQYNHRVKKLNEISKLGISGDIDLTSASYTMI",glycan array binding signal (z-score),[1],-0.376
same,glycan array binding signal (z-score),[2],-0.368
same,glycan array binding signal (z-score),[3],-0.387
same,glycan array binding signal (z-score),[4],-0.391
same,glycan array binding signal (z-score),[5],-0.388
same,glycan array binding signal (z-score),[6],-0.385
same,glycan array binding signal (z-score),[7],-0.391
same,glycan array binding signal (z-score),[8],-0.39
same,glycan array binding signal (z-score),[9],-0.391
same,glycan array binding signal (z-score),[10],2.01
same,glycan array binding signal (z-score),[11],-0.388
same,glycan array binding signal (z-score),[12],-0.388
same,glycan array binding signal (z-score),[13],-0.38
same,glycan array binding signal (z-score),[14],-0.389
same,glycan array binding signal (z-score),[15],-0.391
same,glycan array binding signal (z-score),[16],-0.392
same,glycan array binding signal (z-score),[17],-0.387
same,glycan array binding signal (z-score),[18],-0.383
same,glycan array binding signal (z-score),[19],-0.386
same,glycan array binding signal (z-score),[20],-0.392
same,glycan array binding signal (z-score),[21],-0.387
same,glycan array binding signal (z-score),[22],-0.391
same,glycan array binding signal (z-score),[23],-0.39
same,glycan array binding signal (z-score),[24],-0.389
same,glycan array binding signal (z-score),[25],-0.391
same,glycan array binding signal (z-score),[26],0.941
same,glycan array binding signal (z-score),[27],1.28
same,glycan array binding signal (z-score),[28],3.81
same,glycan array binding signal (z-score),[29],-0.364
same,glycan array binding signal (z-score),[30],-0.392
same,glycan array binding signal (z-score),[31],-0.389
same,glycan array binding signal (z-score),[32],-0.391
same,glycan array binding signal (z-score),[33],-0.389
same,glycan array binding signal (z-score),[34],-0.391
same,glycan array binding signal (z-score),[35],-0.39
same,glycan array binding signal (z-score),[36],-0.386
same,glycan array binding signal (z-score),[37],-0.391
same,glycan array binding signal (z-score),[38],0.399
